Test results as given in the supplement of paper PMC8728848.
This is one part of the list.

What was measured:
Experiment in all cases: glycan array binding signal (z-score within array); higher = stronger binding
Details in all cases: glycan notation: IUPAC condensed, linker removed
Fuc(a1-2)Gal = molecular target: Fuc(a1-2)Gal
In short: (§1)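 Columns mapping to the same glycan were averaged after glycan names were converted to IUPAC-condensed notation. The data come from 3228 arrays in the Consortium for Functional Glycomics database, limited to those with an available protein sequence. Binding is reported as a within-array Z-score averaged across arrays of one protein sequence and across linkers.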

Fuc(a1-2)Gal(b1-3)GalNAc = molecular target: Fuc(a1-2)Gal(b1-3)GalNAc
In short: as §1

[1] = molecular target: Fuc(a1-2)Gal(b1-3)GalNAc(b1-3)Gal
In short: as §1

[2] = molecular target: Fuc(a1-2)Gal(b1-3)GalNAc(b1-3)Gal(a1-4)Gal(b1-4)Glc
In short: as §1

[3] = molecular target: Fuc(a1-2)Gal(b1-3)GalNAc(b1-3)Gal(b1-4)Glc
In short: as §1

[4] = molecular target: Fuc(a1-2)Gal(b1-3)GalNAc(b1-4)[Neu5Ac(a2-3)]Gal(b1-4)Glc
In short: as §1

Fuc(a1-2)Gal(b1-3)GlcNAc = molecular target: Fuc(a1-2)Gal(b1-3)GlcNAc
In short: as §1

[5] = molecular target: Fuc(a1-2)Gal(b1-3)[Fuc(a1-4)]GlcNAc
In short: as §1

Fuc(a1-2)Gal(b1-4)Glc = molecular target: Fuc(a1-2)Gal(b1-4)Glc
In short: as §1

Fuc(a1-2)Gal(b1-4)Glc6S = molecular target: Fuc(a1-2)Gal(b1-4)Glc6S
In short: as §1

Fuc(a1-2)Gal(b1-4)GlcNAc = molecular target: Fuc(a1-2)Gal(b1-4)GlcNAc
In short: as §1

[6] = molecular target: Fuc(a1-2)Gal(b1-4)GlcNAc(b1-3)Gal(b1-4)GlcNAc
In short: as §1

[7] = molecular target: Fuc(a1-2)Gal(b1-4)GlcNAc(b1-3)Gal(b1-4)GlcNAc(b1-3)Gal(b1-4)GlcNAc
In short: as §1

[8] = molecular target: Fuc(a1-2)Gal(b1-4)GlcNAc6S
In short: as §1

[9] = molecular target: Fuc(a1-2)Gal(b1-4)[Fuc(a1-3)]GalNAc(b1-3)Gal(b1-4)[Fuc(a1-3)]GlcNAc
In short: as §1

[10] = molecular target: Fuc(a1-2)Gal(b1-4)[Fuc(a1-3)]GalNAc(b1-3)Gal(b1-4)[Fuc(a1-3)]GlcNAc(b1-3)Gal(b1-4)[Fuc(a1-3)]GalNAc
In short: as §1

[11] = molecular target: Fuc(a1-2)Gal(b1-4)[Fuc(a1-3)]GlcNAc
In short: as §1

Fuc(a1-2)Gal6S(b1-4)Glc = molecular target: Fuc(a1-2)Gal6S(b1-4)Glc
In short: as §1

[12] = molecular target: Fuc(a1-2)Gal6S(b1-4)Glc6S
In short: as §1

[13] = molecular target: Fuc(a1-2)Gal6S(b1-4)GlcNAc
In short: as §1

Fuc(a1-2)GlcNAc = molecular target: Fuc(a1-2)GlcNAc
In short: as §1

Fuc(a1-2)[Gal(a1-3)]Gal = molecular target: Fuc(a1-2)[Gal(a1-3)]Gal
In short: as §1

[14] = molecular target: Fuc(a1-2)[Gal(a1-3)]Gal(b1-3)GlcNAc
In short: as §1

[15] = molecular target: Fuc(a1-2)[Gal(a1-3)]Gal(b1-4)Glc
In short: as §1

[16] = molecular target: Fuc(a1-2)[Gal(a1-3)]Gal(b1-4)GlcNAc
In short: as §1

[17] = molecular target: Fuc(a1-2)[Gal(a1-3)]Gal(b1-4)[Fuc(a1-3)]GlcNAc
In short: as §1

[18] = molecular target: Fuc(a1-2)[Gal(a1-4)]Gal(b1-4)GalNAc
In short: as §1

[19] = molecular target: Fuc(a1-2)[Gal(a1-4)]Gal(b1-4)GlcNAc
In short: as §1

[20] = molecular target: Fuc(a1-2)[GalNAc(a1-3)]Gal
In short: as §1

[21] = molecular target: Fuc(a1-2)[GalNAc(a1-3)]Gal(b1-3)GlcNAc
In short: as §1

[22] = molecular target: Fuc(a1-2)[GalNAc(a1-3)]Gal(b1-4)Glc
In short: as §1

[23] = molecular target: Fuc(a1-2)[GalNAc(a1-3)]Gal(b1-4)GlcNAc
In short: as §1

[24] = molecular target: Fuc(a1-2)[GalNAc(a1-3)]Gal(b1-4)[Fuc(a1-3)]GlcNAc
In short: as §1

[25] = molecular target: Fuc(a1-2)[GalNAc(a1-4)]Gal(b1-4)GlcNAc
In short: as §1

[26] = molecular target: Fuc(a1-2)[GalNAc(b1-3)]Gal
In short: as §1

Fuc(a1-3)GlcNAc = molecular target: Fuc(a1-3)GlcNAc
In short: as §1

[27] = molecular target: Fuc(a1-3)[Gal(b1-4)]Glc6S
In short: as §1

B1: FBG3 (Homo sapiens), Q9H4M3 (protein)
chain: MAVGNINELPENILLELFTHVPARQLLLNCRLVCSLWRDLIDLVTLWKRKCLREGFITEDWDQPVADWKIFYFLRSLHRNLLHNPCAEEGFEFWSLDVNGGDEWKVEDLSRDQRKEFPNDQVKKYFVTSYYTCLKSQVVDLKAEGYWEELMDTTRPDIEVKDWFAARPDCGSKYQLCVQLLSSAHAPLGTFQPDPATIQQKSDAKWREVSHTFSNYPPGVRYIWFQHGGVDTHYWAGWYGPRVTNSSITIGPPLP
For B1, the “glycan array binding signal (z-score)” value (Fuc(a1-2)Gal) was 0.149, the “glycan array binding signal (z-score)” value (Fuc(a1-2)Gal(b1-3)GalNAc) was -0.019 and the “glycan array binding signal (z-score)” value [1] was 0.169. The “glycan array binding signal (z-score)” value [2] was -0.179, the “glycan array binding signal (z-score)” value [3] was -0.294 and the “glycan array binding signal (z-score)” value [4] was -0.235. The “glycan array binding signal (z-score)” value (Fuc(a1-2)Gal(b1-3)GlcNAc) was 0.171, the “glycan array binding signal (z-score)” value [5] was -0.425 and the “glycan array binding signal (z-score)” value (Fuc(a1-2)Gal(b1-4)Glc) was -0.166. For the same binder, the “glycan array binding signal (z-score)” value (Fuc(a1-2)Gal(b1-4)Glc6S) was 0.769, the “glycan array binding signal (z-score)” value (Fuc(a1-2)Gal(b1-4)GlcNAc) was -0.301 and the “glycan array binding signal (z-score)” value [6] was -0.582. For the same binder, the “glycan array binding signal (z-score)” value [7] was -0.354, the “glycan array binding signal (z-score)” value [8] was 0.121 and the “glycan array binding signal (z-score)” value [9] was 0.13. For the same binder, the “glycan array binding signal (z-score)” value [10] was 0.779, the “glycan array binding signal (z-score)” value [11] was -0.293 and the “glycan array binding signal (z-score)” value (Fuc(a1-2)Gal6S(b1-4)Glc) was -0.445. The “glycan array binding signal (z-score)” value [12] was 0.707, the “glycan array binding signal (z-score)” value [13] was -0.284 and the “glycan array binding signal (z-score)” value (Fuc(a1-2)GlcNAc) was -0.096. The “glycan array binding signal (z-score)” value (Fuc(a1-2)[Gal(a1-3)]Gal) was -0.078, the “glycan array binding signal (z-score)” value [14] was 0.051 and the “glycan array binding signal (z-score)” value [15] was -0.093. The “glycan array binding signal (z-score)” value [16] was -0.057, the “glycan array binding signal (z-score)” value [17] was 0.034 and the “glycan array binding signal (z-score)” value [18] was -0.342. For the same binder, the “glycan array binding signal (z-score)” value [19] was -0.72, the “glycan array binding signal (z-score)” value [20] was -0.31 and the “glycan array binding signal (z-score)” value [21] was 0.389. For the same binder, the “glycan array binding signal (z-score)” value [22] was 0.043, the “glycan array binding signal (z-score)” value [23] was -0.26 and the “glycan array binding signal (z-score)” value [24] was 0.422. For the same binder, the “glycan array binding signal (z-score)” value [25] was -0.319, the “glycan array binding signal (z-score)” value [26] was -0.651 and the “glycan array binding signal (z-score)” value (Fuc(a1-3)GlcNAc) was -0.38. The “glycan array binding signal (z-score)” value [27] was -0.149.
